# Results published in paper PMC10528447 (Nature structural & molecular biology, 2023).
# Molecular target: the molecule itself
# Assay: negative-stain EM
protein,measurement,value
MBP-DELE1^CTD-R403A F431S (domain or fragment) not shown,stoichiometry N,4
